Source: PubChem BioAssay AID588342 (National Center for Advancing Translational Sciences (NCATS), 2011)
The campaign covered roughly 360,000 compounds. About 25,000 (6.9%) were called active. The shares of active, inactive and inconclusive entries below differ from those in the screen. The call rests on the fitted dose curve; in most records, active means well fitted inhibition curve with a large enough effect; inconclusive means small, poorly fitted or top-dose-only effect; inactive means flat fitted curve, though single readings scatter. Potencies of inconclusive entries are doubtful fits and often do not repeat.

Biological target: Luciferin 4-monooxygenase (Photinus pyralis) (UniProt P08659)
UniProt P08659, sequence (P08659 whole entry, looked up): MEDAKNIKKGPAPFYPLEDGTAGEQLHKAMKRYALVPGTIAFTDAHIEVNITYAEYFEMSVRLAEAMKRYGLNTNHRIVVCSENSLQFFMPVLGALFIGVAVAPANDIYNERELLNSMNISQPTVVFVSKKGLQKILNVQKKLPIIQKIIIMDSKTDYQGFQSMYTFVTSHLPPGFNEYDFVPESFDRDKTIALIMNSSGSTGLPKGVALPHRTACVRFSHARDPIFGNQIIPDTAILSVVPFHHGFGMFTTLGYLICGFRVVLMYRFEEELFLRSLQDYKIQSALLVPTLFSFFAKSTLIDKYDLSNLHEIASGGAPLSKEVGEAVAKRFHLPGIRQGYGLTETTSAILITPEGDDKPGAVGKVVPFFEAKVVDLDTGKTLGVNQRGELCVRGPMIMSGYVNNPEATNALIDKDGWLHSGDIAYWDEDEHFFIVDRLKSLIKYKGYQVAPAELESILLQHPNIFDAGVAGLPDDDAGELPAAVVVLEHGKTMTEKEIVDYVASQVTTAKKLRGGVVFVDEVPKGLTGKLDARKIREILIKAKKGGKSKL
Assay: qHTS profiling assay for firefly luciferase inhibitor/activator using purifed enzyme and Km concentrations of substrates (counterscreen for miR-21 project); further: nearly all actives have a fitted effect of over 55% in size
Settings: purified FLuc, luminescence inhibition; series mostly up to 57.5 µM
In short: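 Purified P. pyralis luciferase, 10 nM final, with Km-level 10 uM D-luciferin and 10 uM ATP in 50 mM Tris acetate pH 7.5, 10 mM Mg acetate, 0.01% Tween-20, 0.05% BSA; 6-point qHTS titration about 60 µM downward; luminescence read.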
Potency means the concentration at half of the fitted maximal effect; tags describe the fitted curve by direction and shape.

| SMILES | Potency |
| --- | --- |
| COc1ccccc1CNC(=O)c1ccc(NC(=O)N2CC(C)Sc3ccccc32)cc1 (stereo not drawn) | inactive |
| COc1cccc(NC(=O)NCCC2=CCCCC2)c1 | active: 15.1 µM |
| O=C1c2ccccc2C(=O)N1c1ccc(Cc2ccncc2)cc1 | inconclusive: 37.9 µM [inhibitor, single point] |
| CC(C)OCCCN1C=C2C(=O)C(C)(OC(=O)CCc3ccccc3)C(=O)C=C2C=C1c1ccc(C#N)cc1 (stereo not drawn) | inactive |
| COc1ccc(N/C=C/C(=O)c2ccc3c(c2)OCO3)cc1OC | active: 2.69 µM |
| COc1ccc(OC)c(C(=O)COC(=O)CN2C(=O)NC3(CCCCC3C)C2=O)c1 (stereo not drawn) | inactive |
| CCN(Cc1nc2ccccc2c(=O)[nH]1)C(=O)c1cc2c(s1)CCCCC2 | inconclusive: 23.9 µM [inhibitor, partial curve, poor fit] |
| COc1cccc2oc3ccc(C#CC4(N)CCCCC4)cc3c(=O)c12 | active: 6.01 µM |
| O=C(CSc1ccc2nc(-c3ccccc3)cn2n1)NCC1CCCO1 (stereo not drawn) | active: 19 µM |
| COc1ccc(NC(=O)c2nnn(CC(=O)Nc3ccccc3OC)c2N)c(OC)c1 | inconclusive: 1.07 µM [inhibitor, partial curve, poor fit] |
| CC(C)(C)NC(=O)c1ccc(NC(=O)CSc2ccccc2)cc1 | inactive |
| O=C(/C=C/c1ccco1)Nc1scc(-c2ccccc2)c1C(=O)O | active: 4.78 µM |
| COc1ccc(CN2C(=O)c3cccnc3C2Nc2cc(Cl)ccc2OC)cc1 (stereo not drawn) | inconclusive: 23.9 µM [inhibitor, partial curve, poor fit] |
| O=C(c1ccc(COc2ccccc2Br)o1)N1CCCCCC1 | inconclusive: 37.9 µM [inhibitor, partial curve, poor fit] |
| O=C(Nc1ccc2c(c1)nc1n2CCOC1)c1ccccc1 | active: 15.1 µM |
| Cc1ccc(N(CC(=O)NCCc2ccc(F)cc2)S(=O)(=O)c2ccc(Cl)c([N+](=O)[O-])c2)c(C)c1 | inactive |
| CCOC(=O)c1cnn2c1[nH]c(=O)c1ccccc12 | inconclusive: 37.9 µM [inhibitor, partial curve, poor fit] |
| Cc1ccc(-c2cn3cccnc3n2)cc1NC(=O)c1ccc(Br)o1 | inconclusive: 26.9 µM [inhibitor, partial curve, poor fit] |
| CCC(CC)NC(=O)COC(=O)c1ccc(OCc2ccc(C(C)=O)cc2OC)c(OC)c1 | inactive |
| C=CCSc1ncnc2c1oc1nc3c(cc12)COC(C)(C)C3 | active: 13.5 µM |
| C=CCNC(=O)NC(=O)COC(=O)CCCSc1nc2ccccc2[nH]1 | inactive |
| COC(=O)c1cc(NC(=O)Nc2cccc(Cl)c2)ccc1Cl | active: 30.1 µM |
| CCCn1nnc(NC(=O)c2sc3ccccc3c2Cl)n1 | active: 26.9 µM |
| CCOc1ccc(/C=C/C(=O)CCC(=O)O)cc1 | active: 1.07 µM |
| Cc1ccc(C(=O)COC(=O)COc2ccc(C)c(C)c2)cc1 | inconclusive: 21.3 µM [inhibitor, single point] |

| SMILES | Potency |
| --- | --- |
| Clc1c(-c2ccccc2)nnn1-c1ccccc1 | active: 3.38 µM |
| CCc1ccc(C(=O)/C=C/Nc2ccc(S(=O)(=O)Nc3cnc4ccccc4n3)cc2)cc1 | inconclusive: 2.13 µM [inhibitor, full curve] |
| Cc1[nH]n(-c2ccccc2)c(=O)c1S(=O)(=O)c1ccccc1 | inactive |
| O=C(CSc1ccccc1)Nc1ccc(N2CCOCC2)cc1 | inconclusive: 30.1 µM [inhibitor, partial curve, poor fit] |
| CC(=O)Nc1cccc(-c2cn3ccc(C)cc3n2)c1 | active: 4.26 µM |
| CCOC(=O)c1cc2cc3ccccc3cc2[nH]1 | inconclusive: 2.69 µM [inhibitor, full curve] |
| COC(=O)c1ccc(COc2ccccc2/C=N/Nc2cccc(C(=O)O)c2)cc1 | inconclusive: 23.9 µM [inhibitor, single point] |
| O=C(COC(=O)C12CC3CC(CC(O)(C3)C1)C2)Nc1ccccc1OC(F)F | inconclusive: 23.9 µM [inhibitor, partial curve] |
| O=C(O)c1cc([N+](=O)[O-])ccc1N1CCC(Cc2ccccc2)CC1 | inactive |
| Cc1ccc(Cl)cc1NC(=O)c1ccc(CSc2nnnn2C)cc1 | inconclusive: 23.9 µM [inhibitor, partial curve, poor fit] |
| CC(C)CN(C(=O)c1ccco1)c1nc2ccccc2s1 | inconclusive: 33.8 µM [inhibitor, partial curve, poor fit] |
| Brc1ccc(C2=Nc3cccc4cccc(c34)N2)o1 | active: 12 µM |
| N#C/C(=C\c1ccc(O)c(O)c1)C(=O)Nc1ccccc1 | inconclusive: 30.1 µM [inhibitor, single point] |
| Cc1ccc(C(=O)Nc2ccc(C(=O)N/N=C/c3ccccn3)cc2)cc1 | active: 15.1 µM |
| O=C(Cc1c[nH]c2ccccc12)N1CCc2ccccc21 | inconclusive: 19 µM [inhibitor, partial curve] |
| Cc1cccc(-c2nc(N)nc(N)n2)c1 | inconclusive: 26.9 µM [inhibitor, partial curve] |
| O=C(CCCC1=NS(=O)(=O)c2ccccc2N1)N1CCN(c2ccc([N+](=O)[O-])cc2)CC1 | inactive |
| Cc1onc(-c2ccccc2Cl)c1C(=O)Nc1nc2ccc(S(C)(=O)=O)cc2s1 | active: 12 µM |
| COc1cc(C(=O)Sc2ccc(C)cc2)cc(OC)c1OC | inconclusive: 21.3 µM [inhibitor, partial curve, poor fit] |
| Cc1noc(C)c1COC(=O)c1csc2c1CCC(C)C2 (stereo not drawn) | inconclusive: 16.9 µM [inhibitor, partial curve] |
| Nn1c(SCc2ccccc2)nc2c(cnn2-c2ccccc2)c1=O | active: 10.7 µM |
| NC(=O)CSc1nc(C2CC2)nc2sc3c(c12)CCCC3 | active: 1.51 µM |
| Cc1cccc(NC(=O)/C(C#N)=C\c2ccc(C(=O)O)cc2)c1 | inconclusive: 37.9 µM [inhibitor, partial curve, poor fit] |
| COc1ccc(OC)c(/C=C/C(=O)Nc2ccc(OC)nc2)c1 | inconclusive: 26.9 µM [inhibitor, single point] |
| COc1ccc2c(c1OC)C(=O)OC2Nc1nc(-c2cc3cc([N+](=O)[O-])ccc3oc2=O)cs1 (stereo not drawn) | inconclusive: 23.9 µM [inhibitor, partial curve, poor fit] |

| SMILES | Potency |
| --- | --- |
| COc1ccc(CC(=O)Nc2ccc(-c3nc4ccccc4s3)cc2Cl)cc1 | inconclusive: 21.3 µM [inhibitor, single point] |
| N/C(Cc1nc(-c2ccc(Cl)cc2)cs1)=N/O | inconclusive: 23.9 µM [inhibitor, single point] |
| COc1ccc(-c2noc(-c3ccc(N4CCCCC4)c([N+](=O)[O-])c3)n2)cc1 | inconclusive: 3.01 µM [inhibitor, partial curve, poor fit] |
| Cc1cc(C(=O)COc2ccccc2[N+](=O)[O-])c(C)n1C1CC1 | inconclusive: 15.1 µM [inhibitor, partial curve] |
| CCOc1ccccc1C(=O)Nc1ccc(C(=O)c2ccccc2)cc1 | inconclusive: 26.9 µM [inhibitor, single point] |
| Cc1ccc(-c2nc(Nc3ccccc3)n[nH]2)cc1 | active: 1.69 µM |
| COc1ccc(NC(=O)c2sc3nc[nH]c(=O)c3c2C)cc1 | inconclusive: 26.9 µM [inhibitor, single point] |
| COc1ccccc1OCCCn1c(=O)oc2ccccc21 | inconclusive: 16.9 µM [inhibitor, partial curve] |
| Cc1cc2nc(C3CCN(Cc4nnnn4Cc4ccccc4)CC3)[nH]c2cc1C | inconclusive: 26.9 µM [inhibitor, single point] |
| CN(C(=O)C1CCCO1)c1nnc(-c2cnccn2)s1 (stereo not drawn) | inconclusive: 30.1 µM [inhibitor, partial curve, poor fit] |
| CCOc1ccc(/C=C/c2nc(C#N)c(N(C)C)o2)cc1 | inconclusive: 2.13 µM [inhibitor, full curve] |
| C/C(=N\Nc1ncc(Cl)cc1Cl)c1ccc(OC(F)F)cc1 | inconclusive: 37.9 µM [inhibitor, partial curve, poor fit] |
| Cc1[nH]c(-c2ccc3c(c2)OCO3)nc1C(=O)O | inconclusive: 26.9 µM [inhibitor, partial curve, poor fit] |
| COc1cc(-c2nc3ccccn3c2/N=C/c2cc(OC)c(O)cc2Cl)ccc1O | inconclusive: 23.9 µM [inhibitor, single point] |
| COc1ccc(N2CCN(C(CNC(=O)c3ccc(C)cc3)c3ccc4c(c3)OCO4)CC2)cc1 (stereo not drawn) | inactive |
| CC(C)c1ccc(NC(=O)c2cc(S(=O)(=O)N3CCCC3)c[nH]2)cc1 | inconclusive: 23.9 µM [inhibitor, single point] |
| O=C(C1CC1)N1N=C(c2ccncc2)CC1(O)C(F)(F)F (stereo not drawn) | inactive |
| O=c1oc2cc(OCc3ccc(F)cc3F)ccc2cc1-c1ccc2ccccc2n1 | inactive |
| Cc1ccc(C(C)C)c(OCC(=O)OCC(=O)c2c(N)n(C)c(=O)n(C)c2=O)c1 | inconclusive: 23.9 µM [inhibitor, partial curve, poor fit] |
| CCc1ccc2oc(-c3cc(N)ccc3Cl)nc2c1 | active: 0.239 µM |
| COc1ccc(CCNC(=O)c2c(C)nc3ccccn23)cc1 | inactive |
| CCS(=O)(=O)N1CCN(C(=O)COc2ccc(-c3ccccc3)cc2)CC1 | inconclusive: 26.9 µM [inhibitor, single point] |
| c1ccc(-c2nnc3sc(-c4csc5c4CCCC5)nn23)cc1 | active: 15.1 µM |
